± gives the standard deviation of the averaged measurements. In all, about 33,000 sequences were measured (“E-score (dimensionless, -0.5 to 0.5)”: median about -0.046, highest 2% from about 0.36 on). Some of the results follow.
system: T1, SpTbr T-box DNA-binding domain (GST fusion); assay: PBM E-score of 8-mer (E-score (dimensionless, -0.5 to 0.5)); Tbr is Tbrain of the sea star Patiria miniata (Pm) or the sea urchin Strongylocentrotus purpuratus (Sp); higher = stronger binding preference; most listed sequences are background and not binding sites; conditions: the construct has about 5 more residues each side
T1 sequence: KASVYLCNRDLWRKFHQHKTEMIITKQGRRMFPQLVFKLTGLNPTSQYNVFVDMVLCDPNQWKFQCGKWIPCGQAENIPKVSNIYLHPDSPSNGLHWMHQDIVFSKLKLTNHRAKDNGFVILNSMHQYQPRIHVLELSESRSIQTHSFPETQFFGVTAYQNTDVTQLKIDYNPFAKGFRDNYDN
Summary of the method: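 Expression of GST-fused Tbr T-box DNA-binding domains, each holding the full T-box plus roughly five flanking residues, was carried out in BL21 E. coli at 20 °C, with purification by glutathione affinity chromatography. Universal Agilent arrays made double-stranded by primer extension were incubated with the protein at 200 nM in PBS (pH 7.5), then scanned and quantified. All ungapped 8-mers were scored from probe intensities, and each received an enrichment E-score from the Universal PBM Analysis Suite, averaged over duplicate arrays.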

Sequence | PBM E-score of 8-mer
ATCTCAGG | -0.132 ± 0.0044
AGCCAACA | 0.0691 ± 0.042
ACCAAAGC | -0.0584 ± 0.078
AGGGTGGG | 0.0275 ± 0.071
ACGCGTGC | 0.149 ± 0.066
CATGTTAG | 0.00386 ± 0.017
ATGATTTG | 0.0278 ± 0.096
AGCCGGCA | 0.0579 ± 0.0021
GCACGTCA | 0.274 ± 0.0053
CCTACAAC | 0.176 ± 0.055
ATCACGTA | 0.00826 ± 0.0074
GCCACACC | 0.421 ± 0.036
ATTTGTAG | -0.0955 ± 0.049
GCGATCAC | 0.321 ± 0.032
AAAAATAT | -0.0931 ± 0.041
GGCTCAAA | -0.176 ± 0.096
CCAACCTC | 0.0647 ± 0.014
ACTCGCCC | -0.231 ± 0.026
AAGAGCTA | -0.167 ± 0.11
CTTGGCGA | 0.0995 ± 0.087
AGACCAAC | -0.0505 ± 0.056
CAAGGATG | -0.266 ± 0.033
CATAGGCC | -0.155 ± 0.0077
CTACATAA | -0.145 ± 0.0065
GTTGCAAC | 0.0966 ± 0.046

Sequence | PBM E-score of 8-mer
TATAACCA | -0.114 ± 0.039
CTAAAGTC | -0.0847 ± 0.033
CCTGGAGC | -0.16 ± 0.026
ACTATTAC | -0.149 ± 0.051
ACGGCCGG | -0.0239 ± 0.018
TAAGCGAA | -0.0797 ± 0.053
AATCTTGC | -0.137 ± 0.032
ACATTTGA | 0.0665 ± 0.045
ACACGTTC | 0.2806 ± 0.0017
TGACATCA | 0.0637 ± 0.079
GTCAGCAA | -0.00252 ± 0.012
ACCATCGA | -0.00463 ± 0.029
AGCCATTA | -0.133 ± 0.0029
AAGAAACC | -0.104 ± 0.041
TAATTAGA | -0.212 ± 0.032
AATGCCGG | -0.117 ± 0.08
GGACCCAA | -0.182 ± 0.039
GCTATTCA | 0.115 ± 0.0044
TAACCGTA | -0.0947 ± 0.051
ATCCAGGG | 0.00773 ± 0.033
AGTCCGGG | -0.21 ± 0.011
CGTCGCCA | 0.164 ± 0.015
CTGCCTAC | -0.1832 ± 0.0002
GCCAGCTA | -0.0677 ± 0.026
CGGGTGAA | -0.3489 ± 0.0032

Sequence | PBM E-score of 8-mer
GGCCGGAC | -0.161 ± 0.022
CCCGCGCG | 0.107 ± 0.071
GAGAGAAA | -0.0608 ± 0.087
GACTTTGC | -0.105 ± 0.0056
AGTATCTC | -0.212 ± 0.029
AAAACATA | -0.133 ± 0.027
GACGGATC | -0.122 ± 0.04
AATACGTG | 0.0324 ± 0.069
ATTGATTG | 0.031 ± 0.019
GCTTTAAC | -0.0969 ± 0.078
ATAAATTG | -0.0747 ± 0.066
CCATTCCC | -0.132 ± 0.05
CGTGAACG | 0.361 ± 0.02
CTAGGATA | -0.0736 ± 0.024
ACGCTATG | -0.00543 ± 0.0011
AAAACGTA | -0.0702 ± 0.047
CGTTCACC | 0.0843 ± 0.012
GAGTGTCC | 0.0603 ± 0.01
AATAACCT | -0.18 ± 0.022
AGGCATAC | -0.154 ± 0.03
ACATTCAA | -0.146 ± 0.044
AGCTTACC | -0.274 ± 0.031
CCATCATA | -0.216 ± 0.073
GAGGTGAC | 0.429 ± 0.018
CGGAATGC | -0.214 ± 0.051

Sequence | PBM E-score of 8-mer
ACGTCACG | 0.217 ± 0.057
AATGGCCC | -0.219 ± 0.018
GAGACAAC | 0.0497 ± 0.032
AAAGCAGT | -0.167 ± 0.049
ACTCAGAA | -0.0477 ± 0.035
AGGTTAAT | -0.141 ± 0.089
CTTATCTC | 0.0423 ± 0.024
AACGAGGG | -0.217 ± 0.083
CAGACCTG | -0.0842 ± 0.0016
AAGGTGCG | 0.4522 ± 0.0011
CCGGGACA | -0.219 ± 0.052
GCTGTACC | -0.15 ± 0.019
AGGATTAG | -0.233 ± 0.0027
ACTCTCTG | -0.0555 ± 0.053
ATTTGTTC | 0.116 ± 0.037
CGCACGCC | 0.27 ± 0.06
GGTCGTAA | -0.112 ± 0.04
GGCCCGAC | -0.0521 ± 0.057
AACTCTTA | -0.427 ± 0.0093
GACATCGA | -0.0335 ± 0.038
CGCACCGC | 0.228 ± 0.031
ATCGAGGA | -0.247 ± 0.017
ATGTATTA | -0.0951 ± 0.0048
TACTCGCA | 0.119 ± 0.013
AAGCTACC | -0.178 ± 0.013

Sequence | PBM E-score of 8-mer
ACACTCAA | 0.258 ± 0.016
GTTACGGA | -0.151 ± 0.03
ACCTGCCC | 0.0973 ± 0.016
AATGCCAA | 0.0663 ± 0.054
AACGGTCC | 0.0448 ± 0.0094
AAACAAGC | -0.06408 ± 0.0003
GCTATACC | -0.0559 ± 0.043
AGCACCTG | 0.398 ± 0.0042
CGCTCACC | 0.0959 ± 0.018
ATCAGCAA | -0.14 ± 0.0038
AAAGACCC | -0.269 ± 0.046
ATGCTTGA | -0.0555 ± 0.026
ATGCGCGA | 0.294 ± 0.02
TCGATCCA | 0.0226 ± 0.076
ACTGGAGA | -0.123 ± 0.052
ATCACAAG | 0.2978 ± 0.001
AGAGGACT | -0.3 ± 0.017
AGGTTTAC | -0.0845 ± 0.0097
ATCCGATA | -0.222 ± 0.0056
GGGTATCA | -0.108 ± 0.13
CACGACAA | 0.176 ± 0.012
CTCCCCTC | -0.0801 ± 0.0021
AAGTACAA | -0.0909 ± 0.047
CTCTTTTC | -0.0957 ± 0.099
CTGAGAAA | -0.0469 ± 0.13

Sequence | PBM E-score of 8-mer
GACGTGTA | 0.137 ± 0.015
AACACGAA | 0.109 ± 0.027
CTCCCGGA | -0.121 ± 0.018
AAGATGCG | 0.0549 ± 0.051
GAAGGCTA | -0.105 ± 0.0052
CTATGAAC | 0.0185 ± 0.031
GCTGAAAA | -0.078 ± 0.0015
AACACCAC | 0.344 ± 0.015
AGTAGTCA | -0.107 ± 0.071
CGGATCCA | -0.0207 ± 0.011
GTAGGCTA | -0.0979 ± 0.081
ATACAACA | 0.0155 ± 0.037
ACAAACGG | -0.0454 ± 0.039
AGAGCTCC | -0.255 ± 0.041
ACTCACTA | 0.0837 ± 0.051
ATCGGCAG | -0.191 ± 0.047
CTGTGAAC | 0.4126 ± 0.00049
CTTTAGCC | -0.161 ± 0.05
GGCCCCTA | -0.233 ± 0.047
CATCGTGA | 0.0143 ± 0.023
ATAGTGGA | 0.0285 ± 0.029
CGTTCGTC | 0.00445 ± 0.077
GACAACGA | 0.0761 ± 0.0075
ATCAATAC | 0.047 ± 0.0072
GAGATGCC | -0.11 ± 0.0057

Sequence | PBM E-score of 8-mer
CCCTTATC | -0.0336 ± 0.004
TAGGTCGA | -0.142 ± 0.08
AAGGACGC | -0.161 ± 0.065
ATGAAAAA | -0.192 ± 0.0027
AGTTTCAG | -0.093 ± 0.014
ACCGGTCT | -0.2154 ± 0.0004
ACGGCTAC | 0.0278 ± 0.016
CAGTTAAG | -0.0118 ± 0.015
CCGGACCC | -0.0146 ± 0.023
AAGCGCGT | 0.202 ± 0.033
AAGAGTAG | -0.176 ± 0.052
ACATTCGC | 0.311 ± 0.0065
ACCAACGT | -0.158 ± 0.022
CGTGAAGC | 0.287 ± 0.031
TGAGGAAA | 0.0953 ± 0.022
AAGTGGGT | 0.122 ± 0.035
CCCTGTCG | -0.00439 ± 0.04
AGCCTAAA | -0.0716 ± 0.1
ATCAGGTA | -0.128 ± 0.008
AAGTGGAC | -0.098 ± 0.026
ATAGTGAG | 0.231 ± 0.078
CACATGCA | 0.127 ± 0.018

Reference: the supplement of paper PMC4166925
